In ChEMBL document CHEMBL4304741, “Modification and Biological Evaluation of a Series of 1,5-Diaryl-1,2,4-triazole Compounds as Novel Agents against Pancreatic Cancer Metastasis through Targeting Myoferlin” (J Med Chem, 2019) one finds IC50 data, which are given here for three compounds.

One assay concerns the target T1, Cytochrome P450 1A2 (Homo sapiens, UniProt P05177).
T1 sequence (P05177 whole entry): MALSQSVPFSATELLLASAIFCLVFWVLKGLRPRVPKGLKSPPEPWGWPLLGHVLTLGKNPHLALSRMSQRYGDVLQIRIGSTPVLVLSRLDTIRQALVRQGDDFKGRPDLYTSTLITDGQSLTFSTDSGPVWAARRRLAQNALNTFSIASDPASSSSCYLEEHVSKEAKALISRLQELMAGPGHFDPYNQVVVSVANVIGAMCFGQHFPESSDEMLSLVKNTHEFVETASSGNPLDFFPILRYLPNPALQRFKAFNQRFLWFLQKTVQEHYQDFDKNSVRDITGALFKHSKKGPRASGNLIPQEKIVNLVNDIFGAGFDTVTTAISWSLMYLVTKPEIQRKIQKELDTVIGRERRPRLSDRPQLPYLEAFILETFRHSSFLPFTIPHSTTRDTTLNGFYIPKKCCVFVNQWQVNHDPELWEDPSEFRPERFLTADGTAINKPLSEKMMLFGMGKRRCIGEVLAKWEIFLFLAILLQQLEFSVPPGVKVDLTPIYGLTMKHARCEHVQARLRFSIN
Put plainly: Inhibition of CYP1A2 in human liver microsomes using phenacetin as substrate preincubated for 5 mins followed by NADPH-generating system addition and measured after 20 mins by LC-MS/MS analysis. (In general: Liver microsomes are a subcellular fraction often used to study metabolism.)

The target in a further assay is T2, Cytochrome P450 2B6 (Homo sapiens, UniProt P20813).
T2 sequence (P20813 whole entry): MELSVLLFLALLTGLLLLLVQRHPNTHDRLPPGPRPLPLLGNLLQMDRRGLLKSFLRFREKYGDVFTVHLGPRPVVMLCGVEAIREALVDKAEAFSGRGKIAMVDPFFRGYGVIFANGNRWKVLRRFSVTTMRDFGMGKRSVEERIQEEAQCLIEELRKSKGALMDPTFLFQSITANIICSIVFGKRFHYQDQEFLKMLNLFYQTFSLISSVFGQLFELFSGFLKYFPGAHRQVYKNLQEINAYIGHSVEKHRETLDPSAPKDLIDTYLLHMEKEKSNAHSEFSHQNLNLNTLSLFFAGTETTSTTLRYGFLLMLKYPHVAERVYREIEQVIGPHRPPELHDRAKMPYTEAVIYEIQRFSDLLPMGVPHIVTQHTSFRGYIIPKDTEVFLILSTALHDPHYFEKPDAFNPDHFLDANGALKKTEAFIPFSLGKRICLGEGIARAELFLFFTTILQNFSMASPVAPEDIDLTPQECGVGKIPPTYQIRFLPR
Put plainly: Inhibition of CYP2B6 in human liver microsomes using bupropion as substrate preincubated for 5 mins followed by NADPH-generating system addition and measured after 20 mins by LC-MS/MS analysis.

The target of a further assay is Cytochrome P450 2C9 (Homo sapiens, UniProt P11712). Kind of assay: Inhibition of CYP2C9 in human liver microsomes using tolbutamide as substrate preincubated for 5 mins followed by NADPH-generating system addition and measured after 20 mins by LC-MS/MS analysis.
A further assay deals with Cytochrome P450 2E1 (Homo sapiens, UniProt P05181). Put plainly: Inhibition of CYP2E1 in human liver microsomes using chlorzoxazone as substrate preincubated for 5 mins followed by NADPH-generating system addition and measured after 20 mins by LC-MS/MS analysis.
The target in another assay is Cytochrome P450 2D6 (Homo sapiens, UniProt P10635). Put plainly: Inhibition of CYP2D6 in human liver microsomes using tolbutamide as substrate preincubated for 5 mins followed by NADPH-generating system addition and measured after 20 mins by LC-MS/MS analysis.
Sequence of Cytochrome P450 2D6 (P10635 whole entry): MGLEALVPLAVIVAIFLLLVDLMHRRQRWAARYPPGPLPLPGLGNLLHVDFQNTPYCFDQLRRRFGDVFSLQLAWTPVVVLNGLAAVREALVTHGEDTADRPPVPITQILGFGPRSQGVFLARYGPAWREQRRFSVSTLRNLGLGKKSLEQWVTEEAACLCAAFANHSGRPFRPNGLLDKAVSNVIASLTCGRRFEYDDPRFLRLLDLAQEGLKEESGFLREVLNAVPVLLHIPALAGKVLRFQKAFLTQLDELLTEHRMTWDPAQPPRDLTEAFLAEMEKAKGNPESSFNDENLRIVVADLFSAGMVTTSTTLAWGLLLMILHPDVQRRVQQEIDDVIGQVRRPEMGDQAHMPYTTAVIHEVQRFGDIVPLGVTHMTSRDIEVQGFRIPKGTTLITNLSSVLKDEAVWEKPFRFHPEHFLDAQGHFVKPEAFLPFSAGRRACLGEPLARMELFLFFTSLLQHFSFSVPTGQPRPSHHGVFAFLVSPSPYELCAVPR

Sequence of Cytochrome P450 2E1 (P05181 whole entry): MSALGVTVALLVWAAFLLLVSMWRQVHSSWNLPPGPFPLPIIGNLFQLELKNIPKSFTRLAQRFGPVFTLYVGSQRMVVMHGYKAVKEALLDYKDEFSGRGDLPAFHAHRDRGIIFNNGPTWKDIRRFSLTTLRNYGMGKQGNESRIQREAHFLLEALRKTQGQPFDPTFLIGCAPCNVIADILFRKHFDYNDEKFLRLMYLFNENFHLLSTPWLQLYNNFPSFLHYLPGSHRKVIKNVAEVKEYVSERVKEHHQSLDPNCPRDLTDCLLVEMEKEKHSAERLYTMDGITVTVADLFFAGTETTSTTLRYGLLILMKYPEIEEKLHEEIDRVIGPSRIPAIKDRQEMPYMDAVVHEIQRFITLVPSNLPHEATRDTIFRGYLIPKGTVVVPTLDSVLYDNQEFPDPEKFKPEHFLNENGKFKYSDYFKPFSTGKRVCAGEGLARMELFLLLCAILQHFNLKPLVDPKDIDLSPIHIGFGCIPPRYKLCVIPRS
Sequence of Cytochrome P450 2C9 (P11712 whole entry): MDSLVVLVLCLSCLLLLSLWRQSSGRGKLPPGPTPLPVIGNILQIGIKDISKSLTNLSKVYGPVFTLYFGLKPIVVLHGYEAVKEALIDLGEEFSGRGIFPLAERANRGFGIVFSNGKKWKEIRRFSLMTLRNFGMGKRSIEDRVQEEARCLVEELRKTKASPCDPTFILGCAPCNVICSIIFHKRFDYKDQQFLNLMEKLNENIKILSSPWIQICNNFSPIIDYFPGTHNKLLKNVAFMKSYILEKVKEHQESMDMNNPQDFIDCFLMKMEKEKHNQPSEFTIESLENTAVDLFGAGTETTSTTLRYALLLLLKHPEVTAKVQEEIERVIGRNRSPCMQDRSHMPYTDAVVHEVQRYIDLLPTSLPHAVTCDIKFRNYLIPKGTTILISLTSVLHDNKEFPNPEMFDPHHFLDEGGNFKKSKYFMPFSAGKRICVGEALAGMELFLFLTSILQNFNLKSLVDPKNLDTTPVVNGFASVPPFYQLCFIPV

For the compound `COc1ccc(-n2nc(C)nc2-c2cccc(C(=O)NCCCCc3ccccc3)c2)cc1`, the IC50 on Cytochrome P450 1A2 is 16.9 µM; against Cytochrome P450 2B6 it was 23.6 µM; on Cytochrome P450 2C9, 3.38 µM; against Cytochrome P450 2E1, above 50 µM.
The corresponding values for `COc1ccccc1N1C(=O)CSC1c1cccc(C(=O)NCCc2ccc(Br)cc2)c1` (configuration not stated) are above 50 µM, 33.9 µM, 5.35 µM and above 50 µM.
On to `COc1ccc(-c2nc(C)nn2-c2cccc(C(=O)NCCCCc3ccccc3)c2)cc1`, for which the IC50 on Cytochrome P450 2B6 was 29.4 µM; on Cytochrome P450 2C9, 3.93 µM; against Cytochrome P450 2D6, 24.1 µM; on Cytochrome P450 2E1 it was above 50 µM.

For orientation: IC50 means the concentration needed to halve the response being measured. Low readings indicate higher potency, high ones lower potency.
